Results reported in ChEMBL document CHEMBL1201862, “PubChem BioAssay data set” (2004).

What follows are compounds tested on NCI-H322M (assay: growth of human tumour cells (NCI), 48 h).
CN1C(=O)C(=CNc2ccccc2[N+](=O)[O-])C(=O)N(C)C1=O was tested, and the GI50 was inactive: > 100 µM. With CC(N/N=C(\S)N1CCCC1)c1cccnn1 (stereo not drawn) the GI50 was active: 0.982 µM. In the case of S=C(S)NCCN1CCNCC1, the GI50 is reported as inactive: > 100 µM. For Nc1nc(Cl)cc(Oc2ccc(Cl)cc2)n1, the GI50 was inactive: > 43.9 µM. For NC(=O)c1csc(-c2ccc(CO)o2)n1, the GI50 was inactive: > 100 µM. With Oc1cc(-c2ccccc2)nc2cc(Cl)ccc12 the GI50 was inactive: 8.61 µM. With O=C(O)CCc1ccc(-c2ccccc2)[nH]1 the GI50 was inactive: > 100 µM. With COc1cc(C2c3cc4c(cc3OC(C)(N3CCCC3)C2C)OCO4)cc(OC)c1OC (stereo not drawn) the GI50 was active: 0.313 µM. With O=C(O)CCCSc1nc2ccccc2s1 the GI50 was inactive: > 100 µM. With COc1c(-c2nc3ccc(N4CCN(C)CC4)nc3[nH]2)cc(OC)c2c1nc(CCl)n2C the GI50 was inactive: 28.6 µM. In the case of CC1(OCc2ccccc2)C(=O)N2C1NCC2(C)C (stereo not drawn), the GI50 is reported as inactive: > 100 µM. With O=C(CC(=O)C(=O)CC(=O)OCc1ccccc1)OCc1ccccc1 the GI50 was inactive: > 100 µM. For O=c1c2cc(S(=O)(=O)Nc3ccc(Cl)cc3Cl)ccc2ncn1NS(=O)(=O)c1cccc2ccccc12, the GI50 was inactive: 33.8 µM. In the case of CCCNC1=C(C)C(=O)C2=C(C1=O)[C@H](COC(N)=O)[C@]1(OC)[C@@H]3N[C@@H]3CN21, the GI50 is reported as inactive: 4.19 µM. O=c1c2ncn(CCCl)c2n(-c2ccccc2)c(=S)n1-c1ccccc1 was tested, and the GI50 was inactive: > 100 µM. COc1cc(/C=C2\C(=O)N(c3ccc(NC(C)=O)cc3)C(c3ccccc3)S2(=O)=O)cc(OC)c1OC (stereo not drawn) was tested, and the GI50 was inactive: > 100 µM. Cc1cc(C)c2c(c1)CC1(Cc3c(ccc(C)c3C)C1=O)C2=O (stereo not drawn) was tested, and the GI50 was inactive: 84.7 µM. With CCOC(=O)C(NC(=O)CC)(Nc1ccc(S(=O)(=O)Nc2ccc(OC)nn2)cc1)C(F)(F)F (stereo not drawn) the GI50 was inactive: > 100 µM. With NCC(=O)NC(CCCC(NC(=O)CN)P(=O)(O)O)P(=O)(O)O (stereo not drawn) the GI50 was inactive: > 100 µM. For CC1OC23CCCCC2C(C#N)(C#N)C1(C#N)C(=N)O3 (stereo not drawn), the GI50 was inactive: 69.7 µM. With O=C(/C=C/c1cc(Cl)cc(Cl)c1O)c1cccc(O)c1 the GI50 was inactive: 43.8 µM. For Cc1ccc(S(=O)(=O)N2CCN(C=S)CC2)cc1, the GI50 was inactive: > 100 µM. For Nc1nc(Cl)c(C=O)c(NCC2(CO)CCC2)n1, the GI50 was inactive: 24 µM. In the case of COc1ccc2oc(C(=O)O)c3c2c1CCC3CCC(=O)O (stereo not drawn), the GI50 is reported as inactive: > 100 µM. With COc1ccccc1NC(=O)C(C#N)=C(SC)SC the GI50 was inactive: > 100 µM. With O=C(NN1C(=O)/C(=C/c2ccc(Cl)cc2)N=C1c1ccccc1)c1c(Cl)c(Cl)c(Cl)c(Cl)c1-c1nc2ccccc2[nH]1 the GI50 was inactive: 24.8 µM. In the case of C=CCN1CN(C2CCCCC2)CSC1=S, the GI50 is reported as inactive: 8.13 µM. In the case of O=C1C(Br)=C(C2=CC(=P(c3ccccc3)(c3ccccc3)c3ccccc3)C=C2)C(=O)C(Br)=C1C1=CC(=P(c2ccccc2)(c2ccccc2)c2ccccc2)C=C1, the GI50 is reported as inactive: 77.1 µM. For O=C1CC2C=CC(O)C(C1)C2 (stereo not drawn), the GI50 was inactive: > 100 µM. With O=C1NC2c3c(I)sc(I)c3/C(=N\O)C2O1 (stereo not drawn) the GI50 was inactive: > 100 µM. For NC(=O)c1ccccc1NC(=O)C(=O)C(C(=O)c1ccc(Cl)c(Cl)c1)C1OC(=O)c2ccccc21 (stereo not drawn), the GI50 was inactive: 36.5 µM. In the case of Cc1nc(Cc2n[nH]c(C)n2)n[nH]1, the GI50 is reported as inactive: > 100 µM. In the case of O=c1onc2n1-c1cc(Cl)ccc1C(=S)N1CSCC21 (stereo not drawn), the GI50 is reported as inactive: > 100 µM. With Cc1ccc(-c2c(C#N)c(-c3ccccc3)n(NS(=O)(=O)c3ccccc3)c(=O)c2C#N)cc1 the GI50 was inactive: > 100 µM. In the case of Cc1ccc(/C=C2\NC(=S)N(CN3CCCCC3)C2=O)cc1, the GI50 is reported as inactive: > 100 µM. With S=c1[nH]nc(Cc2ccccc2)c(=S)[nH]1 the GI50 was inactive: > 100 µM. With CCOC(=O)N(Cc1cccs1)c1cc(OC)c(OC)c(OC)c1 the GI50 was inactive: > 100 µM. With COc1cccc(OC)c1NC(=O)C(=O)Nn1c(NNC(=O)c2ccncc2)nc2ccccc2c1=O the GI50 was inactive: > 100 µM. With Oc1cc(Br)cc2cc(Br)cnc12 the GI50 was inactive: 17.3 µM. Fc1ccccc1C1SCc2nc3ccccc3n21 (stereo not drawn) was tested, and the GI50 was inactive: > 100 µM. With O=P1(O)c2ccccc2CCc2ccccc21 the GI50 was inactive: > 100 µM. Nc1c(O)c(C(=O)O)cc2ccccc12 was tested, and the GI50 was inactive: 14.5 µM. For Ic1cccc(/C=C/CN2CCN(CCOC(c3ccccc3)c3ccccc3)CC2)c1, the GI50 was inactive: 22 µM. For CCCCN(CC)C(=O)C(=O)Cc1nc2ccc(C(=O)c3ccccc3)cc2nc1O, the GI50 was inactive: > 100 µM. In the case of COC(=O)C1=CCS(=O)(=O)C1, the GI50 is reported as inactive: > 100 µM. For COc1cccc(C2c3cc4c(cc3OC(NNC(N)=O)C2C)OCO4)c1OC (stereo not drawn), the GI50 was inactive: 27.5 µM. For CCCCC/C=C1\CCC(CN2CCOCC2)C1=O (stereo not drawn), the GI50 was inactive: 19.1 µM. For CO/C(=N\N=C(/c1ccccc1)C(F)(F)F)c1ccncc1, the GI50 was inactive: > 100 µM.

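Tested at 5 concentrations; 48 h exposure; 96-well plates; endpoints linearly interpolated, else capped at highest concentration. GI50 is the concentration that inhibits growth by half.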 Active and inactive are the calls of the source. Rule as the data show it: active = GI50 up to about 1.1 µM and inactive = higher.
